Binding data for six molecules are collected here from publication PMC5814325.

Amino acid sequences for entries named in this document (tags omitted). Residues count along the entry.
UniProt P52799, residues 28-333: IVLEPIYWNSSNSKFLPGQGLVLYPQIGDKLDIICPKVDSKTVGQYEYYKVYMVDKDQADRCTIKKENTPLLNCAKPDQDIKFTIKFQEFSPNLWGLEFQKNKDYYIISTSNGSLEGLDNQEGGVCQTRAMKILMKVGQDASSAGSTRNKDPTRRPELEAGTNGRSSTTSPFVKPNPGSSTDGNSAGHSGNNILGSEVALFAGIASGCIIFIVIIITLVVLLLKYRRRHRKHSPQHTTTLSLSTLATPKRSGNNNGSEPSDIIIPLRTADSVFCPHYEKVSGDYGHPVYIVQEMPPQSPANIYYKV

In assay [1] the target is T1, Flag-tagged RhoGDI1 (wild type) (human) (UniProt P52565).
T1 sequence: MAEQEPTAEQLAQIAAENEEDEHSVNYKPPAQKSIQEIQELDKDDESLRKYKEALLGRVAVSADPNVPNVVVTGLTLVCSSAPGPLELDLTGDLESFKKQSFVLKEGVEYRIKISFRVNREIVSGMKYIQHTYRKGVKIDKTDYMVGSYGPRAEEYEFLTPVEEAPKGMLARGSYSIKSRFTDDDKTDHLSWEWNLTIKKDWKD
As to the kind of experiment: co-IP; HEK293T cells co-transfected; lysis buffer 20 mM Tris-HCl pH 8, 137 mM NaCl, 2 mM EDTA, 1% NP-40; IP with HA or Flag antibodies at 4 °C overnight, protein A/G-agarose; immunoblot.

Assay [2] concerns the target T2, Flag-tagged RhoGDI1 G173V (human) (UniProt P52565).
T2 sequence: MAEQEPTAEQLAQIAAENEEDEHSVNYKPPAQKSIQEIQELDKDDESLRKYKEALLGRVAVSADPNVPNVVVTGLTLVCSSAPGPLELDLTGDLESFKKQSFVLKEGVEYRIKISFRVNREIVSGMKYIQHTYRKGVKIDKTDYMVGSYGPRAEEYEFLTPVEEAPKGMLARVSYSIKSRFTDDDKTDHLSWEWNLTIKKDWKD
The assay is described as above.

For assay [3], the target named is T3, Flag-tagged RhoGDI2 (human) (UniProt P52566).
T3 sequence: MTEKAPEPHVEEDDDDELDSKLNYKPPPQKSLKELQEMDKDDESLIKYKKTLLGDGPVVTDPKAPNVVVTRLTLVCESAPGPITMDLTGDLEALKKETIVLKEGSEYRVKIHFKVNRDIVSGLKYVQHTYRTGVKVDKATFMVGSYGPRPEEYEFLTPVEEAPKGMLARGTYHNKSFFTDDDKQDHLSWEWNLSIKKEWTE
The description is as above.

Assay [4] concerns the target T4, HA-tagged ephrinB1 (wild type) (UniProt P98172).
T4 sequence: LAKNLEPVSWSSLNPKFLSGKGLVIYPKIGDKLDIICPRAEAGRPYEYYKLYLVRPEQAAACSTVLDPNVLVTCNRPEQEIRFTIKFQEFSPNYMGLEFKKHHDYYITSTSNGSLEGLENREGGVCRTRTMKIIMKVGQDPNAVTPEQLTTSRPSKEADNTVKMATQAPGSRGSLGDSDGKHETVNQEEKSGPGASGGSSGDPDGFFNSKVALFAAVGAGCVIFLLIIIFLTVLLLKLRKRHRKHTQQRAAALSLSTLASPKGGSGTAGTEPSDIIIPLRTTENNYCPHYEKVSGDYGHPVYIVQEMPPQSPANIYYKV
The description is as above.

The target in assay [5] is T4, HA-tagged ephrinB1 (wild type). As to the kind of experiment: co-IP; HEK293T cells co-transfected with increasing amounts of V5-RhoGDI1 G173V and constant HA-ephrinB1 and wt Flag-RhoGDI1; HA IP; competition.
The target of assay [6] is T5, HA-tagged ephrinB1 Δ287–326 (UniProt P98172).
T5 sequence: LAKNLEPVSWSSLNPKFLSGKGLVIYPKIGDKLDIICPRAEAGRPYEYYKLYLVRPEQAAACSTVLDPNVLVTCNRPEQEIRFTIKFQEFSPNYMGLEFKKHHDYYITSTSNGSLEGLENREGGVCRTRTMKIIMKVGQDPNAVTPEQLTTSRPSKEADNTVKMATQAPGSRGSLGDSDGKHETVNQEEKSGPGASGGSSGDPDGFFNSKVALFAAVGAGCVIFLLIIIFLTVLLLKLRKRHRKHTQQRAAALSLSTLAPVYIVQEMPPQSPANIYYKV
The assay is described as follows: co-IP; HEK293T cells co-transfected; lysis buffer 20 mM Tris-HCl pH 8, 137 mM NaCl, 2 mM EDTA, 1% NP-40; IP with HA or Flag antibodies at 4 °C overnight, protein A/G-agarose; immunoblot. (In general: A western blot detects proteins with antibodies after separation by electrophoresis.)

The target of assay [7] is T6, HA-tagged ephrinB1 Δ327–334 (UniProt P98172).
T6 sequence: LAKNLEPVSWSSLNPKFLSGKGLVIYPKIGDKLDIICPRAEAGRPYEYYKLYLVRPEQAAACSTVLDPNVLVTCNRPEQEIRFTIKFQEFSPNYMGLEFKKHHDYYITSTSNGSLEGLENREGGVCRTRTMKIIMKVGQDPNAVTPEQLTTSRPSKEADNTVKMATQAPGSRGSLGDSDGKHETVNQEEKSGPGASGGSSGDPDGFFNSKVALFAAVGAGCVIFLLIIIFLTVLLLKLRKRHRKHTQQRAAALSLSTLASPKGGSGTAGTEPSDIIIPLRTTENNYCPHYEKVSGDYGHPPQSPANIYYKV
The description is as above.

Assay [8] deals with T7, HA-tagged ephrinB1 Δ335–342 (UniProt P98172).
T7 sequence: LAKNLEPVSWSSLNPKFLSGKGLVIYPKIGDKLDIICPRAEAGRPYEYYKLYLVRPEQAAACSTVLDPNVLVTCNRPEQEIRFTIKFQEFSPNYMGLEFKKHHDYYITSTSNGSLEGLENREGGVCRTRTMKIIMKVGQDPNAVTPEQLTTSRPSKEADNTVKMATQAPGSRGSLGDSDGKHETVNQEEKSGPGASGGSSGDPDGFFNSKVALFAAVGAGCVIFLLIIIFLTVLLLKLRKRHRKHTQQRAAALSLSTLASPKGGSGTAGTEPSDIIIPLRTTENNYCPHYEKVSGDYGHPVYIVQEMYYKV
The assay is described as above.

The target of the next assay is HA-tagged ephrinB2 (UniProt P52799). The assay is described as above.
The target in a further assay is T8, HA-tagged ephrinB3 (UniProt Q15768).
T8 sequence: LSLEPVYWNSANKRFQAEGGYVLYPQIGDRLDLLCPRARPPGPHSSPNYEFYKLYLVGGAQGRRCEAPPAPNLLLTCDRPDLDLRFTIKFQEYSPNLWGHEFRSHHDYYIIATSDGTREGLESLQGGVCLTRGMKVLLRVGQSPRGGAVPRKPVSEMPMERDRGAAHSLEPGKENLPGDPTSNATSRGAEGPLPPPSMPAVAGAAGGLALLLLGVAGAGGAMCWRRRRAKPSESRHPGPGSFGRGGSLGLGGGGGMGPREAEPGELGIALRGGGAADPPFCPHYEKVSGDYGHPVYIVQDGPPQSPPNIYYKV
The assay is described as above.

In assay [9] the target is T9, HA-tagged Δ4-ephrinB1 (lacking the C-terminal four amino acids, the PDZ-binding motif) (UniProt P98172).
T9 sequence: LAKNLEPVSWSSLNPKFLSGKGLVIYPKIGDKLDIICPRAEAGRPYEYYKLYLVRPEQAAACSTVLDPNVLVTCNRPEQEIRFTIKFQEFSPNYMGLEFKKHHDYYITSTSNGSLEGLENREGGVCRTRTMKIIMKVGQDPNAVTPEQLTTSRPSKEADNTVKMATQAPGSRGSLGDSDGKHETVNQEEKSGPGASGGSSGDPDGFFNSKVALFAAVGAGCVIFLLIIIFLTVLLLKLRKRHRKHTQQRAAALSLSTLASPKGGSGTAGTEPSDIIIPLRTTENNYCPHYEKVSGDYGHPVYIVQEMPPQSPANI
The assay is described as above.

Assay [10] has as its target T10, HA-tagged ephrinB1 (wild type) in HeLa cells (UniProt P98172).
T10 sequence: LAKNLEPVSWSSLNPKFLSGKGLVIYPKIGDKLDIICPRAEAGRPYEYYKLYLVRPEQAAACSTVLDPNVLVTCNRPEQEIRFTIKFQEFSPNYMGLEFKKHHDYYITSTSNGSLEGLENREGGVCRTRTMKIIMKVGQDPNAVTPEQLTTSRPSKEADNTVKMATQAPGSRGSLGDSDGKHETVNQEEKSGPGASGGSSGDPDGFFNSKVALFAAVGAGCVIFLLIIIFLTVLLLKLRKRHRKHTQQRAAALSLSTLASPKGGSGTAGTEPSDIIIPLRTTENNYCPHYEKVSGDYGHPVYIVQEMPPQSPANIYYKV
The assay is described as follows: co-IP; HeLa cells expressing ephrinB1 constructs (with Flag-RhoGDI1 or with endogenous RhoGDI1), serum-starved, treated with 2.5 μg/ml control Fc or EphB2-Fc for 30 min; IP of ephrinB1 (HA antibody) and immunoblot.

In assay [11] the target is T10, HA-tagged ephrinB1 (wild type) in HeLa cells. As to the kind of experiment: co-IP; HeLa cells co-transfected with HA-ephrinB1 and/or V5-RhoGDI1 G173V, treated with 2.5 μg/ml control Fc or EphB2-Fc for 15 min; IP and immunoblot; competition with endogenous RhoGDI1.

These are yes or no findings as the source states them, for the method shown. Binding seen in cells or lysates may run through a third protein. Some binding calls cover weakened binding; strength is not graded here. Sequences can lack the tags named with a protein.

B1: HA-tagged ephrinB1 (wild type) (protein, UniProt P98172 28-346)
chain: LAKNLEPVSWSSLNPKFLSGKGLVIYPKIGDKLDIICPRAEAGRPYEYYKLYLVRPEQAAACSTVLDPNVLVTCNRPEQEIRFTIKFQEFSPNYMGLEFKKHHDYYITSTSNGSLEGLENREGGVCRTRTMKIIMKVGQDPNAVTPEQLTTSRPSKEADNTVKMATQAPGSRGSLGDSDGKHETVNQEEKSGPGASGGSSGDPDGFFNSKVALFAAVGAGCVIFLLIIIFLTVLLLKLRKRHRKHTQQRAAALSLSTLASPKGGSGTAGTEPSDIIIPLRTTENNYCPHYEKVSGDYGHPVYIVQEMPPQSPANIYYKV
With B1, the binding entry in [1] is on record as “binds”; in assay [2], “binds”; in assay [3] it was “no binding”.

B2: Flag-tagged RhoGDI2 (protein, UniProt P52566 1-201)
chain: MTEKAPEPHVEEDDDDELDSKLNYKPPPQKSLKELQEMDKDDESLIKYKKTLLGDGPVVTDPKAPNVVVTRLTLVCESAPGPITMDLTGDLEALKKETIVLKEGSEYRVKIHFKVNRDIVSGLKYVQHTYRTGVKVDKATFMVGSYGPRPEEYEFLTPVEEAPKGMLARGTYHNKSFFTDDDKQDHLSWEWNLSIKKEWTE
Regarding B2, in [4], the binding result was “no binding”.

B3: Flag-tagged RhoGDI1 (wild type) (protein, UniProt P52565-1 1-204)
chain: MAEQEPTAEQLAQIAAENEEDEHSVNYKPPAQKSIQEIQELDKDDESLRKYKEALLGRVAVSADPNVPNVVVTGLTLVCSSAPGPLELDLTGDLESFKKQSFVLKEGVEYRIKISFRVNREIVSGMKYIQHTYRKGVKIDKTDYMVGSYGPRAEEYEFLTPVEEAPKGMLARGSYSIKSRFTDDDKTDHLSWEWNLTIKKDWKD
For the molecule B3, the binding result in [5] was “binds”; in assay [4] it was “binds”; in assay [6], “binds”; in assay [7], “no binding”; in assay [8] it was “binds”; with HA-tagged ephrinB2, “binds”. Moreover, the binding result was “no binding” with HA-tagged ephrinB3 and “binds” in assay [9].

B4: Flag-tagged RhoGDI1 (wild type) in HeLa cells (protein, UniProt P52565-1 1-204)
chain: MAEQEPTAEQLAQIAAENEEDEHSVNYKPPAQKSIQEIQELDKDDESLRKYKEALLGRVAVSADPNVPNVVVTGLTLVCSSAPGPLELDLTGDLESFKKQSFVLKEGVEYRIKISFRVNREIVSGMKYIQHTYRKGVKIDKTDYMVGSYGPRAEEYEFLTPVEEAPKGMLARGSYSIKSRFTDDDKTDHLSWEWNLTIKKDWKD
In the case of B4, the binding entry in [10] is given as “binds”.

B5: V5-tagged RhoGDI1 G173V (protein, UniProt P52565-1 1-204)
chain: MAEQEPTAEQLAQIAAENEEDEHSVNYKPPAQKSIQEIQELDKDDESLRKYKEALLGRVAVSADPNVPNVVVTGLTLVCSSAPGPLELDLTGDLESFKKQSFVLKEGVEYRIKISFRVNREIVSGMKYIQHTYRKGVKIDKTDYMVGSYGPRAEEYEFLTPVEEAPKGMLARVSYSIKSRFTDDDKTDHLSWEWNLTIKKDWKD
With B5, the binding result in assay [5] is listed as “binds”.

B6: V5-tagged RhoGDI1 G173V in HeLa cells (protein, UniProt P52565-1 1-204)
chain: MAEQEPTAEQLAQIAAENEEDEHSVNYKPPAQKSIQEIQELDKDDESLRKYKEALLGRVAVSADPNVPNVVVTGLTLVCSSAPGPLELDLTGDLESFKKQSFVLKEGVEYRIKISFRVNREIVSGMKYIQHTYRKGVKIDKTDYMVGSYGPRAEEYEFLTPVEEAPKGMLARVSYSIKSRFTDDDKTDHLSWEWNLTIKKDWKD
For B6, in assay [11], the binding entry is listed as “binds”.
